Whole data set: some 33,000 sequences, median “E-score (dimensionless, -0.5 to 0.5)” near -0.058, cut for the highest 2% near 0.35. This is one part of the list.
Each sequence was assayed on MvaT (assay: PBM 8-mer E-score (mean of HK and ME arrays) (E-score (dimensionless, -0.5 to 0.5)); higher = stronger relative binding preference; most listed sequences are background and not binding sites).
Procedure, shortened: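 Full-length P. aeruginosa MvaT carrying an N-terminal glutathione S-transferase tag was tested by protein binding microarray following a previously described protocol. Two universal double-stranded 60-mer arrays, ME and HK, were used, each with a constant 25-mer primer region and a variable 35-mer region covering all 8-mers. The rank-based E-score is the mean of the two arrays, parsed with a custom script. Its range runs from -0.5 to 0.5 for each 8-mer.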

| Sequence | PBM 8-mer E-score |
| --- | --- |
| AAACGCTC | -0.0864 |
| CGTAGCAC | -0.112 |
| TAAAGCCA | 0.031 |
| TCATGTCA | 0.079 |
| CCAAGTCC | -0.215 |
| AAGGCGCC | -0.206 |
| CATTATAC | 0.295 |
| CTCATTCA | -0.291 |
| ATGAGCCC | -0.275 |
| GCGTTGGA | -0.221 |
| CCAGCCTC | -0.297 |
| CTTAAGAA | 0.239 |
| GAGCCTGC | -0.246 |
| AAACGGAC | -0.0276 |
| GCCCGGAA | -0.0999 |
| ACGTCCTG | -0.093 |
| CAGAATAG | 0.00967 |
| CTGGGATC | -0.23 |
| CCACCGCG | -0.131 |
| TACGTCGA | 0.0167 |
| TACTCCGA | 0.00852 |
| CTAACATC | 0.226 |
| ACAAGGCT | -0.25 |
| CCAGTGAG | -0.126 |
| CCTGTCCA | -0.228 |

| Sequence | PBM 8-mer E-score |
| --- | --- |
| AATCGTCC | -0.0377 |
| CTTCCTTA | 0.0214 |
| CCCTGTGC | -0.142 |
| GATGTTGA | 0.0183 |
| CAAGCTGA | -0.202 |
| ATTATGGA | 0.218 |
| AAATGGGT | 0.0809 |
| CTGATCTC | -0.247 |
| CAAATCTC | -0.0992 |
| GCACAACC | -0.138 |
| CAGTTGCC | -0.278 |
| GGGGTTTA | -0.193 |
| ACCCTACT | -0.0752 |
| AAGGGGCA | -0.214 |
| TGCAGCAA | 0.00169 |
| GAAACGCC | -0.151 |
| AGTTTCGG | 0.0118 |
| ATCGCTGC | -0.0586 |
| ATGCAATG | -0.0649 |
| CCGGGGGA | -0.254 |
| AGACAGGA | -0.156 |
| GAGGCATC | -0.2 |
| GAATAGGC | -0.136 |
| CGGCCTCC | -0.262 |
| AAACGATC | -0.0835 |

| Sequence | PBM 8-mer E-score |
| --- | --- |
| AGCTGACC | -0.269 |
| CGCGAACG | -0.173 |
| AAGGCCGA | -0.204 |
| ACCTACGC | -0.167 |
| ATGGACGC | -0.122 |
| AGACGTAG | -0.189 |
| AGTAACAT | 0.284 |
| AGCATGAT | -0.0581 |
| GGGATCCC | -0.246 |
| CAGTCTCA | -0.0899 |
| ATGCCAGC | -0.153 |
| AGGGCACA | -0.247 |
| GATCCTCA | -0.283 |
| AGCATTAC | 0.0736 |
| GGGATGAA | 0.0505 |
| AAAACTTC | 0.149 |
| AGTGCTTC | -0.151 |
| GAAGGTGA | -0.104 |
| ACTACTGA | 0.0939 |
| ATAAACCA | 0.331 |
| ATCGCCTC | -0.24 |
| ACTGCCGG | -0.0714 |
| AAAGTATC | 0.211 |
| AGGAATAG | -0.104 |
| CTCGGCCC | -0.198 |

| Sequence | PBM 8-mer E-score |
| --- | --- |
| ACTCACAG | -0.0989 |
| CTCCGATC | -0.186 |
| TGCCTGAA | -0.0387 |
| AATCTCCG | 0.0198 |
| GAGGCATA | -0.0069 |
| CATTTCAA | 0.067 |
| GCTGGAAA | -0.0389 |
| GCAATCGC | -0.0395 |
| ATTGTCTA | 0.176 |
| ATCTGATA | 0.188 |
| CCACAATA | 0.182 |
| CTAATTGA | 0.11 |
| CGTAGGCA | -0.226 |
| AATGGCTC | -0.0946 |
| GCTCGTTA | 0.0378 |
| ATAACAAC | 0.228 |
| ATATTAAC | 0.434 |
| GCATACCC | 0.0205 |
| CTCTGCCA | -0.234 |
| CTCGGACA | -0.204 |
| CCTAACTC | -0.00572 |
| CAAACGTC | 0.0149 |
| GATATCAA | 0.25 |
| GAACTGCA | -0.0114 |
| TGTGGCAA | 0.0676 |

| Sequence | PBM 8-mer E-score |
| --- | --- |
| GACTCCAA | 0.021 |
| CAAGACTA | 0.15 |
| CATGGGAG | -0.242 |
| GCGACAAA | 0.0622 |
| ACACTGAA | 0.084 |
| ATCTCAAA | 0.0937 |
| CAGACTTA | 0.116 |
| CGCGGTAG | -0.161 |
| GCTACAGA | -0.201 |
| CCTGACCA | -0.225 |
| TCATACCA | 0.0385 |
| ACAGGATA | 0.111 |
| TCTCCGAA | -0.0929 |
| AACATACC | 0.0787 |
| AGATTGAA | 0.0952 |
| CCCGCCCG | -0.121 |
| ACCTCCCC | -0.224 |
| ATACCTCC | -0.172 |
| ACGCTCCA | -0.196 |
| GCGGTAAA | 0.0188 |
| ACCAAGCC | -0.256 |
| AGTTGTGG | 0.136 |
| AAGGCTAC | -0.197 |
| ACGTGTGG | -0.0151 |
| CTCGGCAC | -0.162 |

| Sequence | PBM 8-mer E-score |
| --- | --- |
| CGTTCTGC | -0.0587 |
| GGGCAAAC | -0.00413 |
| TAGCCGGA | -0.218 |
| CCCAGAAA | -0.116 |
| GAAGAGTA | -0.00757 |
| AACGACAG | -0.0946 |
| GACGCCAA | -0.138 |
| CCAAGCTA | -0.0982 |
| AAATAGAG | 0.171 |
| CGGGAACA | -0.197 |
| TCTTGGCA | -0.0864 |
| AATCTAAG | 0.102 |
| AGTTTAAT | 0.379 |
| ACATGGTC | -0.222 |
| CCTGAGCC | -0.36 |
| AAACCGCT | -0.108 |
| CCAACATC | 0.0587 |
| ATTCACCA | 0.225 |
| CTTGTACA | -0.000693 |
| CTACACCA | -0.0178 |
| AAACGAGC | -0.0752 |
| ACACGTCT | -0.118 |
| AGTAAGGG | -0.0556 |
| ATCTAGTG | -0.0694 |
| CGACTTAA | 0.226 |

| Sequence | PBM 8-mer E-score |
| --- | --- |
| CGAACTGC | 0.0227 |
| GGCAATAA | 0.228 |
| CTCCTGCC | -0.23 |
| AGAAACTG | 0.0568 |
| TGTCGAAA | 0.147 |
| CTGGTGAC | -0.142 |
| GGAAAGCA | -0.275 |
| CAGATTGA | -0.00818 |
| CAATAGTG | 0.248 |
| GGTGGAGA | -0.174 |
| CAAGACTG | 0.00304 |
| AGGGGTGG | -0.319 |
| GATCAAGC | -0.154 |
| CGCCTGGC | -0.109 |
| ACAAGACG | -0.127 |
| CATCCGTA | 0.0263 |
| GAGCACCA | -0.227 |
| CACACGTG | -0.139 |
| CCGCCAAG | -0.146 |
| ACCTAAGA | -0.0551 |
| CCGATTTA | 0.0508 |
| ACAAATCT | 0.0455 |
| ATACCATG | 0.0314 |
| AGGAATAA | 0.259 |
| ACCCTGCC | 0.0684 |

| Sequence | PBM 8-mer E-score |
| --- | --- |
| GGCTCGCA | -0.282 |
| GATGCGAA | 0.0654 |
| ATGTATCC | 0.202 |
| ATTGGAAG | 0.139 |
| GCACAATA | 0.26 |
| GACTGAAA | -0.0305 |
| AGCCATCA | -0.131 |
| AATATTAT | 0.445 |
| CGTTAACC | 0.0719 |
| CGAAAACC | -0.0776 |
| TCTAGGAA | -0.0425 |
| GAGAAAGA | -0.0554 |
| GAGCAAAA | -0.0501 |
| CACTACGC | -0.158 |
| ATCCAGGA | 0.0499 |
| TGACTACA | 0.109 |
| AACCATAC | 0.0324 |
| CAACTGCG | -0.0509 |
| CTCCCTCC | -0.204 |
| CACTTGGA | 0.011 |
| AGAGTCAC | -0.132 |
| ACTAGTAA | 0.24 |
| CAGGTAGG | -0.3 |
| GAACAGCC | -0.31 |
| ACATTCGG | -0.0277 |

| Sequence | PBM 8-mer E-score |
| --- | --- |
| AGATACTA | 0.143 |
| AGGCCCTA | -0.185 |
| ACTACGTA | -0.0219 |
| CCCATCTA | -0.0587 |
| ACACCATA | 0.0603 |
| ATGATCCA | -0.00729 |
| AATCTAAC | 0.198 |
| TAACCATA | 0.1 |
| AGCATATC | -0.0071 |
| GCGTTTGA | -0.185 |
| AATATTGT | 0.355 |
| AAAGAGGG | -0.217 |
| AGCGCTAC | -0.0554 |
| CTGCCATA | -0.149 |
| ATTTGCGC | 0.183 |
| GATCCCAC | 0.0328 |
| AATCTTAG | 0.0795 |
| AGTGTTAT | 0.265 |
| GTAGATGA | 0.0641 |
